According to PubChem BioAssay AID686971 (National Center for Advancing Translational Sciences (NCATS), 2013):
Among all 360,000 compounds or so, about 7,500 (2.1%) were called active. Inconclusive means that the source gave no clear call. Such entries were picked first, then a sample of the others. The call rests on the fitted dose curve; in most records, active means well fitted cell-killing curve with a large enough effect; inconclusive means small, poorly fitted or top-dose-only effect, or effect the other way, or another doubt; inactive means no such curve, though single readings can be large or run the other way. Potencies of inconclusive entries are left out as doubtful fits.
Potency means the concentration at half of the fitted maximal effect; tags describe the fitted curve by direction and shape.

Experiment: qHTS for induction of synthetic lethality in tumor cells producing 2HG: qHTS for the HT-1080-IDH1KD cell line;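 on activity, negative = toxicity: 0% = DMSO wells and -100% = cell-free medium wells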
Settings: HT-1080 IDH1 knockdown viability, ATP luminescence, 48 h; activity, negative = toxicity: at 46.1 µM (top of the series) unless noted
Outline: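 After a 2 h attachment period, IDH1KD HT-1080 cells took pin-transferred compound for 48 h at 37 °C; ATP-based luminescence after 10 min room-temperature reagent incubation reported viability.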
In the case of `COc1ccc(-c2cc(NC(C)=O)c3ncc(-c4ccc(OC)c(OC)c4)n3c2)cc1OC`, the Potency was inconclusive [cytotoxic, single point]. In the case of `O=C(NCc1ccncc1)c1csc([C@@H]2O[C@H](CO)[C@@H](O)[C@H]2O)n1`, the Potency was inconclusive [rising, partial curve]. For `CCCCn1c(SCC(=O)Nc2nccs2)nc2ccccc2c1=O`, the Potency was inconclusive [cytotoxic, single point]. For `CN1/C(=C/c2cccc[n+]2C)Sc2ccccc21`, the Potency was inconclusive [cytotoxic, partial curve]. In the case of `COc1ccc(Cl)cc1N1CCN(CCNC(=O)Nc2ccccc2C)CC1`, the Potency was inconclusive [cytotoxic, single point]. With `Cc1ccc(CN2C(=O)C(CC(C)C)Nc3ncnc(N4CCN(c5ccccn5)CC4)c32)cc1` (stereo unspecified) the Potency was inconclusive [cytotoxic, single point]. For `C#CCNC(=O)C[C@@H]1C[C@@]2(C(=O)OC)CC(C)(C)CC=C2N(Cc2ccco2)C1=O`, the Potency was “inactive”. In the case of `CN(C)C(=O)CSc1nc2ccccc2n1Cc1ccccc1`, the Potency was “inactive”. For `N#Cc1cc(-c2ccccc2)nnc1Oc1ccccc1Cl`, the Potency was inconclusive [cytotoxic, single point]. In the case of `COc1ccc(NC(=O)c2cc(-c3ccc(F)cc3OC)n[nH]2)cc1OC`, the Potency was inconclusive [cytotoxic, partial curve]. For `CCOC(=O)COc1ccc(Br)cc1/C=C/c1[nH]c(=O)[nH]c(=O)c1[N+](=O)[O-]`, the Potency was inconclusive [cytotoxic, single point]. For `O=C(Cn1nnc(-c2ccccc2)n1)N/N=C/c1cccc([N+](=O)[O-])c1O`, the activity, negative = toxicity was inconclusive: -22.1% [cytotoxic]. With `CC(C)(C)c1cc2nc3c(c(=O)n2[nH]1)CN(Cc1ccccc1)C3=O` the Potency was “inactive”. For `Cc1ccc(CS(=O)(=O)c2ncc(Cl)c(C(=O)Nc3nnc(C(C)C)s3)n2)cc1`, the Potency was active: 9.2 µM. In the case of `CC(C)CC1C(=O)N(Cc2cn(CCC3OCCO3)nn2)CCS(=O)(=O)N1Cc1ccc(-c2ccc(F)cc2)cc1` (stereo unspecified), the Potency was inconclusive [cytotoxic, single point]. For `COc1cc(C(=O)NNC(=O)c2ccc(NC(C)=O)cc2)cc(OC)c1OC`, the Potency was “inactive”. For `CC1(C)CC(N2CCC(=O)NC2=S)CC(C)(C)N1`, the activity, negative = toxicity was inconclusive: 30.9%. For `COc1ccc(C(=O)n2cc(C(C)=O)c3ccccc32)cc1`, the Potency was inconclusive [cytotoxic, single point]. With `CC(C)(C)c1cc(NC(=O)c2ccc(OC3CCCC3)cc2)no1` the Potency was inconclusive [cytotoxic, partial curve]. In the case of `CCc1nc(SCC(=O)Nc2ccc([N+](=O)[O-])cc2)n[nH]1`, the Potency was inconclusive [cytotoxic, full curve]. In the case of `COC(=O)c1ccc(NC(=O)c2cc(-c3ccccn3)nc3ccccc23)cc1`, the Potency was “inactive”. For `CCN(CC)S(=O)(=O)c1ccc2[nH]cc(C(=O)NCCC3=CCCCC3)c(=O)c2c1`, the Potency was active: 23.1 µM. For `Cc1ccccc1-c1nc(CS(=O)(=O)CC(=O)NCCCN2CC(C)CC(C)C2)c(C)o1` (stereo unspecified), the Potency was inconclusive [cytotoxic, partial curve]. In the case of `Cn1cnc([N+](=O)[O-])c1S(=O)(=O)c1ccc(Cl)cc1`, the Potency was active: 6.51 µM. In the case of `CCOc1ccc2nc(NC(=O)c3cccc(-c4cc5ccccc5oc4=O)c3)sc2c1`, the Potency was active: 16.4 µM. With `CCN1C(=O)[C@@H]2[C@@H](c3ccc(-c4ccc(F)cc4)c(OC)c3)N3CCCC[C@@]3(C(=O)OC)[C@@H]2C1=O` the Potency was “inactive”. In the case of `Cc1ccc(S(=O)(=O)N2CCCOC2)cc1`, the Potency was “inactive”. For `O=c1[nH]c(CN2CCN(c3ccc(O)cc3)CC2)nc2scc(-c3ccc(Cl)cc3)c12`, the Potency was active: 20.6 µM. For `CN(C)CCNCc1ccc(OC2CCCC2)cc1`, the Potency was “inactive”. In the case of `O=C(Cc1cccs1)N1CCC(c2nc3c(nnn3Cc3ccc(F)cc3)c(=O)[nH]2)CC1`, the Potency was inconclusive [cytotoxic, single point]. In the case of `CC1CCCCC1NC(=O)/C(C#N)=C/C=C/c1ccccc1[N+](=O)[O-]` (stereo unspecified), the Potency was active: 4.61 µM. For `O=C1N=C(N2CCOCC2)S/C1=C/c1ccc(-c2ccc(F)cc2)o1`, the Potency was inconclusive [cytotoxic, partial curve]. For `COc1ccccc1-c1csc(C(O)c2ccc(F)cc2)n1` (stereo unspecified), the Potency was “inactive”. In the case of `Cc1ccc(C(=O)Nc2nc(=O)n(C(=O)c3ccccc3C)s2)cc1`, the Potency was inconclusive [cytotoxic, single point]. For `CC(=O)NC1=NN(C(C)=O)C(C)(c2ccc(Br)cc2)S1` (stereo unspecified), the Potency was active: 18.4 µM. With `c1ccc(NNC2=NCCCCC2)cc1` the Potency was active: 4.11 µM. For `COc1cc(Cl)c(C)cc1NC(=O)c1ccccc1NC(=O)CN1CCN(C(C)=O)CC1`, the Potency was “inactive”. For `COc1ccc(C2c3ccc(O)cc3Oc3ncn4nc(-c5ccccn5)nc4c32)cc1` (stereo unspecified), the Potency was inconclusive [cytotoxic, single point]. For `c1ccc2c(c1)Cn1nnnc1-2`, the Potency was “inactive”. For `O=C1NC(c2ccccc2)=C(c2ccc3ccccc3n2)C(c2ccncc2)N1` (stereo unspecified), the activity, negative = toxicity was inactive: -5.22% [at 9.24 µM]. For `N=c1n(Cc2ccccc2)c2ccccc2n1Cc1ccccc1`, the Potency was “inactive”. In the case of `COc1ccc2sc(-c3ccc(N(C)C)cc3)c(C#Cc3cncn3C)c2c1`, the Potency was active: 25.9 µM. For `CCCSc1nc2c(cnn2-c2ccccc2)c(=O)[nH]1`, the Potency was inconclusive [cytotoxic, single point]. For `CCOC(=O)c1ccc(NC(=O)NC2=NCCS2)cc1`, the Potency was active: 2.31 µM. In the case of `O=C(NCc1cccnc1)c1ccc([N+](=O)[O-])o1`, the Potency was inconclusive [cytotoxic, single point]. With `CCc1nc2c(OCCn3cccc3)cccn2c1N(C)C(=O)c1ccc(C)cc1` the Potency was “inactive”. With `Cc1ccc(N2C(=O)c3cccc4c(N)ccc(c34)C2=O)c2cccnc12` the Potency was active: 0.0073 µM. In the case of `Cc1ccc(C)c(N2CCN(C(=O)c3ccc(Cn4c(=O)[nH]c5ccccc5c4=O)cc3)CC2)c1`, the Potency was inconclusive [cytotoxic, single point]. With `Fc1ccc(-n2cc(-c3ccccc3)c3c(=S)nc[nH]c32)cc1` the Potency was inconclusive [cytotoxic, single point]. For `CCOC(=O)C1(Cc2cccc(Cl)c2)CCCN(C(=O)c2cc(C)on2)C1` (stereo unspecified), the Potency was “inactive”. For `CCCCCCCCN1C(=O)[C@H](CC(=O)NCc2cccc3ccccc23)C[C@@]2(C(=O)OCC)CCC=C12`, the Potency was inconclusive [cytotoxic, single point]. In the case of `CNC(=O)N(O)C1N(/N=C/c2ccc(N(C)C)cc2)C(=S)SC1(C)C` (stereo unspecified), the Potency was “inactive”. In the case of `CCC(C)(C)n1nnnc1C(c1ccc2ncccc2c1)N1CCN(c2nc3ccccc3s2)CC1` (stereo unspecified), the Potency was inconclusive [cytotoxic, single point]. In the case of `Cc1ccccc1-n1c(SCC(=O)NC(N)=O)nc2sc(-c3ccccc3)cc2c1=O`, the Potency was “inactive”. For `Cc1ccc(-c2ccc(/C=C3\SC(N4CCOCC4)=NC3=O)o2)cc1`, the Potency was active: 8.2 µM. With `Cc1sc2ncnc(N3CCC(C(=O)N(C)CC(=O)Nc4ccccc4Br)CC3)c2c1C` the Potency was “inactive”. With `CC1(C)C(=O)C=CC(=O)C(C)(C)C(=O)C=CC(=O)C(C)(C)C2=CC=C(O2)C(C)(C)C(=O)C=CC1=O` the Potency was inconclusive [cytotoxic, single point]. In the case of `CCOc1ccccc1N1CCN(C2=C(NS(=O)(=O)c3cccs3)C(=O)c3ccccc3C2=O)CC1`, the Potency was inconclusive [cytotoxic, single point]. With `COc1cc(O)cc(/C=C/c2ccccc2)c1` the Potency was inconclusive [cytotoxic, single point]. For `COc1ccccc1NC(=O)Nc1nc(C(N)Cc2ccccc2)cs1` (stereo unspecified), the Potency was inconclusive [cytotoxic, single point]. For `COc1ccc(C(=O)c2[nH]c(N)c(C(=O)NCCc3c[nH]c4ccccc34)c2-c2ccc(Cl)cc2)cc1`, the Potency was inconclusive [cytotoxic, single point]. For `CCOc1ccc(NCc2nnc(SCc3ccccc3Cl)n2-c2ccccc2)cc1`, the Potency was inconclusive [cytotoxic, single point]. For `O=C(Nc1cc(F)cc(F)c1)c1ccc(NCCCN2CCCCCC2)c([N+](=O)[O-])c1`, the Potency was inconclusive [cytotoxic, single point]. For `Cc1ccc(C(=O)N/N=C/c2c(O)ccc3ccccc23)cn1`, the Potency was inconclusive [cytotoxic, full curve]. With `Clc1ccc(CSc2nnc(-c3cccnc3)n2Cc2ccco2)c(Cl)c1` the Potency was “inactive”. In the case of `Cc1cc(OCC(=O)OCC(=O)NCc2ccco2)ccc1Cl`, the Potency was “inactive”. For `COc1ccccc1NC(=O)c1cc(C(=O)Nc2ccccc2OC)cc(N2C(=O)CCC2=O)c1`, the Potency was inconclusive [cytotoxic, partial curve]. With `CCC(=O)NC(=S)N1CCN(c2ccc([N+](=O)[O-])cc2Cl)CC1` the activity, negative = toxicity was inconclusive: -72.1%. In the case of `CCc1cc2c3c(c1)C(C)CC(C)(C)N3C(=O)/C2=C1\SC(=O)NC1=O` (stereo unspecified), the Potency was inconclusive [cytotoxic, partial curve, poor fit]. For `Cc1ccc2nc(-c3cccc(NC(=O)c4ccco4)c3)[nH]c2c1`, the Potency was inconclusive [cytotoxic, single point]. For `COC(=O)c1c(NC(=O)c2ccccc2N(C)S(=O)(=O)c2ccccc2)sc2c1CCCC2`, the Potency was inconclusive [cytotoxic, full curve].
